# The campaign covered roughly 150,000 compounds. About 540 (0.36%) showed an effect of 50% or more. The list shows a part of the results.
# Tested on: Plasmodium falciparum
# Test: Primary screen in NF54 nanoGlo assay, in single point, at 2uM, 72h; a lower Z score goes with more inhibition
# Assay type: functional, Erythrocyte
# Conditions: timepoint 72 hour
Structure (SMILES),% Inhibition,Z score
CC(C)Cc1cc(CN(C)[C@@H](CO)C(C)C)n[nH]1,-6%,1.06
O=C1CC[C@@H](C(=O)N2CCCn3cc(-c4ccccc4)nc32)N1,-9%,1.5
Cc1cc(C(=O)NCc2ccncc2)c(=O)n(C)c1C,-11%,1.52
CC(=O)Nc1ccc(NC(=O)c2cc3c(s2)CCCCCC3)cc1,-3%,0.28
CN(CC(=O)N(C)C(C)(C)C#N)c1c(F)cccc1F,-3%,0.52
CCCn1nccc1-c1ccc(N2CCN(C)CC2)nn1,-7%,1.11
CC1CC(c2ccccc2)CCN1C(=O)c1cc(C2CC2)on1 (stereo not drawn),36%,-5.25
Cc1cnc(C)c(N2CCC(c3nccn3Cc3cccnc3)CC2)n1,0%,0.06
CNC(=O)[C@@H]1CCCN1C(=O)Nc1csc(-c2ccccn2)n1,1%,-0.22
O=C(CNC(=O)NCC1CC12CCc1ccccc12)NCC1CC1 (stereo not drawn),8%,-1.1
CN(C)c1nccc(N2CCC[C@H](c3nncn3C)C2)n1,-2%,0.37
O=C(N[C@H]1CCOC[C@@H]1O)[C@H]1C[C@@H]1c1ccc(OC(F)F)cc1,-9%,1.22
O=C(Cc1cccs1)Nc1ccc(N2CCN(c3ccccc3F)CC2)c(S(=O)(=O)NCc2ccc3c(c2)OCO3)c1,-1%,0.14
COC(C)(C)C(=O)Nc1ccc(F)cc1C,-11%,1.77
CCOC(=O)c1nsc(Cl)c1Cl,4%,-0.44
Nc1ccnc(N2CCC[C@@](CO)(CCc3ccccc3)C2)n1,-6%,0.91
C1=CCC2CN(c3ncnc4[nH]ncc34)CC2C1 (stereo not drawn),27%,-2.26
CN(C(=O)N1C[C@@H]2CC[C@H]1CN(S(=O)(=O)N(C)C)C2)c1ccccc1,-15%,2
CC(C)Oc1ccc(F)cc1NC(=O)CC(C)(C)C(=O)O,-12%,2.25
Cc1c(C(=O)N2CCn3ccnc3[C@@H]2C(C)C)cc(-c2ccccc2)n1C,1%,-0.13
N#CC1CCN(CCc2ccc3c(c2)CCO3)CC1,-4%,0.64
O=C(CCC(=O)Nc1ccc(S(=O)(=O)N2CCc3ccccc32)cc1)Nc1ccc(S(=O)(=O)N2CCc3ccccc32)cc1,-5%,0.69
COCCN(CCOC)C(=O)c1cc(F)ccc1F,9%,-0.92
Cc1ccc(-n2c(C)c(C)c3c(=O)n(CC(=O)NC(C)C)cnc32)cc1,-9%,0.91
CCOc1ccc(-c2nc(N(C(=O)C3CCCCC3)c3ccccc3OC)sc2C)cc1,-5%,0.63
CCn1ccc(C(=O)NCC(=O)N2CCCCCCNC(=O)C[C@H]2c2ccccc2)n1,2%,-0.3
COc1cccc(-c2nsc(C(=O)NCc3cccnc3)c2N)c1,35%,-0.67

Structure (SMILES),% Inhibition,Z score
C[C@H](OCC1CC1)C(=O)Nc1ccncc1,-8%,1.14
c1ccc(-c2cc3c(N4CCC4)ncnc3s2)cc1,31%,-4.11
C[C@H](NC(=O)Nc1ccc(S(=O)(=O)N2CCCCC2)cn1)c1nccn1C,-9%,1.17
C=CCNC(=O)c1cccc(S(=O)(=O)N[C@@H]2C[C@@H](CO)N(C)C2)c1,8%,-1.17
CN(Cc1ccccc1)Cc1cn([C@H]2CO[C@H]3[C@@H]2OC[C@@H]3NC(=O)C2CCCCC2)nn1,-6%,0.93
Cc1nc(C(=O)N2CCc3[nH]c4c(Cl)cccc4c3C2)c(C)o1,3%,-0.52
CC(C)C12OC3C(O)C4CC3C1C4C(=O)N2C1CCCCC1 (stereo not drawn),-3%,0.48
CCCN1CCc2c(c(CN(C(=O)C3CCCCC3)C(C)C)nn2-c2ccc(C)cc2)C1,-5%,0.53
Cc1ncsc1CCC(=O)N[C@H]1CC[C@H]1NC1CCCC1,-2%,0.32
CNc1snc(C)c1C(=O)N1CCc2[nH]ncc2C1,-12%,1.91
COc1ccc(C2=NN(C(=O)CN(CCN3CCOCC3)C(=O)c3ccccc3F)[C@H](c3ccc(OC)cc3)C2)cc1,3%,-0.44
COc1ccccc1C(=O)Nc1ccc(S(=O)(=O)N2CCc3ccccc32)cc1,-17%,2.36
CCCc1nc(C)cc(N2CCN(CC3CC3)[C@@H](CCO)C2)n1,-16%,2.11
COc1ccc2nc3ccccc3nc2c1NC(=O)c1ccc(Cl)cc1,3%,-0.31
CCCn1c(-c2cccc(C(=O)N3CCC(C)CC3)c2)nc2cccnc21,-5%,0.68
CC[C@H](C)[C@H](CO)NC(=O)CCc1c(C)[nH]c2cc(=O)[nH]n2c1=O,-10%,1.2
Cc1cccc(C)c1Oc1ncccc1CNC1CCC1,2%,-0.38
CCOC(Cn1cc(CO)nn1)OCC,2%,-0.33
Cc1cccc(Nc2nc(C(=O)N(CCC(=O)NC[C@H]3CCCO3)Cc3ccco3)cs2)c1,-9%,1.48
CCOC(=O)c1cnn2c1N(S(=O)(=O)c1c(C)cnn1C)CC2,-15%,1.92
N#CCNC(=O)c1ccc(C(F)(F)F)[nH]1,8%,-0.85
O=C(c1cccnc1)N1CCCC1CC(O)c1ccccc1 (stereo not drawn),-13%,1.76
COCc1cc(=O)n(CC(=O)NCCc2ccc(Cl)cc2)c(N2CCCC2)n1,-8%,1.12
FC(F)CN1CC[C@H](CNc2cnccn2)C1,-7%,1.03
CC(C)(C)C(=O)N1CCC2(CC1)CC(=O)N(Cc1ccc(Cl)cc1)C2,-1%,0.11
CCOC(=O)CC1=Nc2ccccc2NC(=O)C1,10%,-1.27
O=C(Nc1cccc2[nH]ccc12)NC1CCCC1,7%,-1.16

# — ChEMBL document CHEMBL4888484, “Replenishing the malaria drug discovery pipeline: Screening and hit evaluation of the MMV Hit Generation Library 1 (HGL1) against asexual blood stage Plasmodium falciparum ,using a nano luciferase reporter read-out” (2022)
